# Assay results taken from PubChem BioAssay AID886 (National Center for Advancing Translational Sciences (NCATS), 2007).
# The whole screen tested about 73,000 compounds, of which about 2,500 (3.4%) were called active. The shares of active, inactive and inconclusive entries below differ from those in the screen. Calls follow the shape of the dose curve; as a rule, active = well fitted inhibition curve with a large enough effect; inconclusive = small, poorly fitted or top-dose-only effect; inactive = no such curve, though single readings can be large or run the other way. A potency beside an inconclusive call is a rough fit, not a confirmed value.
# Target: 3-hydroxyacyl-CoA dehydrogenase type-2 (Homo sapiens) (UniProt Q99714)
# Test: qHTS Assay for Inhibitors of HADH2 (Hydroxyacyl-Coenzyme A Dehydrogenase, Type II); also: nearly all actives have a fitted effect of over 60% in size
# Settings: recombinant HADH2, NADH fluorescence, beta-hydroxybutyryl-CoA; activity change, negative = inhibition: at 57.1 µM (top of the series)
# Outline: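 His-tagged recombinant enzyme from E. coli, 20 nM, preincubated 15 min RT with compound; reaction started with 1 mM NAD+ and 90 uM beta-hydroxybutyryl-CoA in 100 mM Tris-HCl pH 9.0. NADH fluorescence (ex 360/em 450) read over 4 min; last-minus-first difference.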
# % is scaled to controls: 0 for no effect and ±100 for the full control effect; potency is read from the fitted curve at half-maximal effect; tags tell the direction and shape of the fitted curve.
# Sequence of UniProt Q99714 (Q99714 whole entry, looked up): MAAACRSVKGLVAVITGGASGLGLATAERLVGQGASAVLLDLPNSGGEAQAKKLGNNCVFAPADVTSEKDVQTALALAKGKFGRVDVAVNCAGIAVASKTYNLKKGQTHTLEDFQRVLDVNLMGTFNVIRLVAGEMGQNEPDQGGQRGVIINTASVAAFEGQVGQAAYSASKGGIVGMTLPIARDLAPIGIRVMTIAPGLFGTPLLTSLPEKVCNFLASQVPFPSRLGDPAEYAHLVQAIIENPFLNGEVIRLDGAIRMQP
# Sequence of UniProt Q99714 (Q99714 whole entry, looked up): as above
Structure (SMILES),Potency,"activity change, negative = inhibition"
C=CCn1c(COc2cccc3ccc(C)nc23)nnc1SCC(=O)O,"inconclusive: 39.8 µM [inhibitor, single point]",–
Cc1nc(-c2cccc(S(=O)(=O)N3CCOCC3)c2)cs1,active: 1 µM,–
O=C(NCC(=O)N(Cc1cccs1)C(C(=O)NC1CCCC1)c1ccncc1)c1ccco1 (stereo not given),"inconclusive: 25.1 µM [inhibitor, single point]",–
Cc1nc2ccccn2c1P(=O)(N1CCCCC1)N1CCCCC1,–,inactive: 22.1%
CCN(CC)c1ccc(/C=N/n2nnnc2N)c(O)c1,–,inactive: -18.4%
CCc1cc(=O)oc2c(C)c(O)c(CN(C)C)cc12,"inconclusive: 6.31 µM [inhibitor, single point]",–
Cc1ccc(C)c(S(=O)(=O)N2CCC(c3nc4c(nnn4Cc4ccc(F)cc4)c(=O)[nH]3)CC2)c1,–,inactive: -8.2%
O=C(c1cc(-c2cccc(O)c2)on1)N1CCc2ccccc2C1,"inconclusive: 25.1 µM [inhibitor, single point]",–
Cc1ccc2c(c1)C1OCCC1C1N2C(=O)C2C(C(=O)O)C3C=CC21O3 (stereo not given),"inconclusive: 10 µM [inhibitor, partial curve]",–
Nc1nncn1C(=O)CCCN1C(=O)c2ccccc2C1=O,"inconclusive: 15.8 µM [inhibitor, partial curve]",–
NC1=C(c2ccc(F)cc2)C(=O)CS1,"inconclusive: 31.6 µM [inhibitor, single point]",–
CCN1CCN(Cc2c(O)c(Cl)cc3c(C)cc(=O)oc23)CC1,"inconclusive: 5.01 µM [inhibitor, single point]",–
COc1cc(C2C(C(=O)N3CCOCC3)=C(C)NC3=C2C(=O)CCC3)ccc1OC(C)=O (stereo not given),"inconclusive: 25.1 µM [inhibitor, single point]",–
CCOC(=O)c1ccccc1NC(=O)c1cc2sccc2n1C,active: 25.1 µM,–
Cc1ccc(S(=O)(=O)c2c(N)n(/N=C/c3ccco3)c3nc4ccccc4nc23)cc1C,"inconclusive: 39.8 µM [inhibitor, single point]",–
Cc1cccn2c(N)c(-c3ccccc3)nc12,active: 31.6 µM,–
COc1cccc(C(c2sc3ncnn3c2O)N2CC(C)OC(C)C2)c1 (stereo not given),"inconclusive: 31.6 µM [inhibitor, single point]",–
CCOc1ccc(N(C(C)C(=O)NC2CCCCCC2)S(C)(=O)=O)cc1 (stereo not given),"inconclusive: 39.8 µM [inhibitor, single point]",–
NC[C@@H]1O[C@H](c2ccccc2)Cc2c1ccc(O)c2O,"inconclusive: 0.1 µM [inhibitor, full curve]",–
CCOc1cc(S(=O)(=O)NCC2OCCc3ccccc32)c(OCC)cc1-n1cnnn1 (stereo not given),"inconclusive: 39.8 µM [inhibitor, single point]",–
Cc1sc2nnn(CC(=O)N3CCN(C(=O)c4ccco4)CC3)c(=O)c2c1C,"inconclusive: 25.1 µM [inhibitor, single point]",–
Cc1ccc2c(nc3s/c(=C/c4cccs4)c(=O)n32)c1C,active: 31.6 µM,–
O=C(O)c1ccccc1C(=O)NCc1cccnc1,–,inactive: 20.1%
COC(=O)c1sc2nc(-c3ccco3)ccc2c1N,"inconclusive: 20 µM [inhibitor, partial curve]",–
O=C1N2CN(C(c3ccccc3)c3ccccc3)CN=C2SC1(CO)CO,–,inactive: -9%

Structure (SMILES),Potency,"activity change, negative = inhibition"
CCc1ccc(CCC(=O)Nc2nc(CC(C)=O)ns2)o1,"inconclusive: 15.8 µM [inhibitor, partial curve]",–
O=C(NCC1CCCO1)c1ccccc1-c1nc(-c2ccc(Cl)cc2)no1 (stereo not given),–,inactive: 10.8%
COc1ccccc1CNc1ncncc1-c1ccc(C(=O)N(C)C)cc1,"inconclusive: 31.6 µM [inhibitor, single point]",–
c1csc(-c2nnc3ccccn23)c1,"inconclusive: 31.6 µM [inhibitor, single point]",–
O=C(O)C[n+]1ccccc1,–,inactive: -1.22% [at 11.4 µM]
Cc1ccc(S(=O)(=O)Nc2ccccc2C=O)cc1,–,inactive: 1.23% [at 11.4 µM]
CC(=O)N1[C@H](C)C=C[C@]1(Cc1ccccc1)C(=O)NCc1ccc(C)o1,–,inactive: -1.05%
COc1ccc(OC)c(CNc2nc3ccccc3n2CCN2CCCCC2)c1,–,inactive: 17.8%
COc1cc(OC)cc(C(=O)NCc2cccnc2)c1,–,inactive: -0.832%
Cc1cc(-n2c(=O)c(C#N)cc3c(=O)n4ccccc4nc32)no1,–,inactive: 194%
Cc1ccc(-n2ncc3c2ncn2c(C)nnc32)cc1C,"inconclusive: 39.8 µM [inhibitor, single point]",–
Cc1ccccc1-c1c(C)oc2cc(O)ccc2c1=O,active: 20 µM,–
CC(=O)c1nc2ccccc2n1S(=O)(=O)c1ccc(Cl)cc1,"inconclusive: 31.6 µM [inhibitor, single point]",–
CC(=O)Nc1ccc(-c2cn3cccnc3n2)cc1,active: 15.8 µM,–
COc1cc(C2Nc3ccccc3C(=O)N2c2ccccc2OC)ccc1O (stereo not given),"inconclusive: 39.8 µM [inhibitor, single point]",–
Cn1c(-c2ccc(N)cc2)nc2ccccc21,–,inactive: -144%
CC(C)CCn1cnc2c([nH]c3cccc(Cl)c32)c1=O,"inconclusive: 39.8 µM [inhibitor, single point]",–
COc1ccccc1-c1nc(C#N)c(N2CCN(c3ccccc3)CC2)o1,"inconclusive: 31.6 µM [inhibitor, single point]",–
COc1ccccc1-c1coc2c(CN3CCN(CCO)CC3)c(O)ccc2c1=O,active: 25.1 µM,–
CNc1nnc(CSc2nc3ccccc3s2)s1,"inconclusive: 31.6 µM [inhibitor, single point]",–
O=C(Nc1ccccc1-c1nc2ccccc2o1)c1ccc2c(c1)OCCO2,active: 3.98 µM,–
COC(=O)c1ccc(CSc2nnc(-c3ccncc3)o2)o1,–,inactive: 13.7%
CCOC(=O)C1=C(C)NC(=O)NC1c1ccc(N(C)C)cc1 (stereo not given),"inconclusive: 6.31 µM [inhibitor, single point]",–
COC(=O)CNC(=O)C12CC3(C)CC(C)(CC(C)(C3)C1)C2,"inconclusive: 31.6 µM [inhibitor, single point]",–
O=C(NCc1ccccn1)[C@H]1C[C@@H]1[C@H](NP(=O)(c1ccccc1)c1ccccc1)c1ccccc1,–,inactive: -0.701%
